Results from the supplement of paper PMC11417369.
± gives the standard deviation of the averaged measurements. The list shows a part of the results.

What follows are sequences tested on PfAP2-G AP2 domain (GST-tagged) (assay: gcPBM binding intensity (ln(normalized median fluorescence intensity)); higher = stronger DNA binding).
Outline: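 DNA-binding domains from P. falciparum, fused to GST and produced in E. coli, were put on an Agilent 4 × 180k double-stranded probe array for 1 h in 1× PBS holding 1% milk, 0.2 mg/ml BSA, 0.5% salmon testes DNA and 0.03% Triton X-100. Probes were primer-extended, 36 bp long and drawn from intergenic genomic regions, with negative controls included. After Alexa488 anti-GST antibody detection and a 488 nm scan, binding intensity was set as the highest Masliner-normalised natural-log median intensity across replicate spots of either probe orientation.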

| Sequence | gcPBM binding intensity (ln) |
| --- | --- |
| ATAAATATGTATTGCTGTACATATATATAAATTATC [XGTACX_site8411] | 11.2 ± 0.75 |
| AATAGGAAAACCTATACACACTTTAAAAAAAATATA [CACACA_site4977] | 9.785 ± 0.007 |
| AAAGAGAACATAAGTACACACATGTTCTTTTAGTAA [CACACA_site2824] | 11.4 ± 0.93 |
| TTTTTGCCATATTACACACACACATGGAAACCCCCT [CACACA_site4994] | 11.1 ± 0.64 |
| TAAAAAATTTTCGCGTGTACGCAAGAAAAAAAAAAT [XGTACX_site3058] | 11.6 ± 0.84 |
| TAAAAAATAAGATATACACACATATATTTATTTATA [CACACA_site7158] | 9.62 ± 0.11 |
| CAAATAAATTAAAGGTGTACTTTTATAGTTACGACA [XGTACX_site3926] | 11.4 ± 0.81 |
| CATATTTTCTTGTGTACACATTTATTTTATACTATA [CACACA_site6032] | 11.7 ± 0.97 |
| TATATATTTAGTTAGTGTACAAGTTATTTAGTAGTT [XGTACX_site5133] | 11.3 ± 0.91 |
| TCTTTTAACAAATAATAAGCTAATTTATATTATTAT [GTGCAC_negctrl_site655] | 9.49 ± 0.21 |
| AAAAAAATAATGTATATATAAATTTATTTACATATG [GTGCAC_negctrl_site107] | 9.73 ± 0.042 |
| GGTACGTATTTCAATGCATGTCCATGTACATATAAA [TGCATGCA_site208] | 11.6 ± 0.41 |
| ATTGCGTGATAATAATGTACAAAAAGTAATTTATAT [XGTACX_site8339] | 10.7 ± 0.33 |
| TCATTCTAAATATAAACACACATAAATATATACATT [CACACA_site3354] | 9.905 ± 0.092 |
| AATATATAATTTTTAACACACAAAAAAAAAAAAAAT [CACACA_site3581] | 9.9 ± 0.18 |
| AAAAAAAAAAAAAAAACACACACATATAATATATTT [CACACA_site8369] | 10.3 ± 0.3 |
| CATACGTTCTAATATATACACACCTGGTATTAATTA [CACACA_site2221] | 10.04 ± 0.021 |
| CTATAATGTTTCTTTCAACACACAAAAAATGAACAC [CACACA_site8438] | 10.4 ± 0.26 |
| TATGCACAGAAACACACACACACAACCAAAAAATAA [CACACA_site5425] | 10.2 ± 0.28 |

| Sequence | gcPBM binding intensity (ln) |
| --- | --- |
| AAAAAAAAAAAAAAAAGTACAAAAATATATATGCAT [XGTACX_site8392] | 11.4 ± 0.75 |
| CAGAATATATTCTATACATGCAATAGGAAATGTAGC [TGCATGCA_site110] | 10.2 ± 0.11 |
| TTTTTATTTATATGTATACACACTTTAATTAAAAGT [CACACA_site2525] | 10.34 ± 0.071 |
| TGTTATATATAAATTTGTACACATAAATATTTTTAC [XGTACX_site5873] | 11.4 ± 0.78 |
| AATAAAAAAAAATGCACACATATATATATATATATA [CACACA_site2421] | 10.2 ± 0.6 |
| TTAAACTTGAAACACACACACACACCCATATAAAAA [CACACA_site758] | 10.3 ± 0.38 |
| AATGTGTAGGTAAGATAATTTTTGTTTTTTTATTTG [CACACA_negctrl_site424] | 9.94 ± 0.042 |
| ATATTTATAATATAGAGTACTTACTAAGTTATGGGT [XGTACX_site5405] | 11.2 ± 0.71 |
| AAATTTTCTTAAGGTTGTACTTTTTGAAAATAATCT [XGTACX_site4894] | 11.3 ± 0.9 |
| TGTAGTCTGGAGAAACGTACATAGTATCTGGTAGCT [XGTACX_site2538] | 11.1 ± 0.79 |
| TAATGGAATAAAAATTGTACATATTTTTTTTTTTTT [XGTACX_site7669] | 11.1 ± 0.71 |
| GAATTTCAACAAAGTAGTACATTTTATAGTAATTGG [XGTACX_site2319] | 11.4 ± 0.79 |
| ATAAATATGTTCTGCACACAAATAAGTGTTTGAAGT [CACACA_site3892] | 10.2 ± 0.24 |
| TCATAGGGGTAGAAGGTGCAATAAAAAAGAAGAAAA | 10.5 ± 0.59 |
| TATAATATATCTGTAACACACAAAAGTTATATACTT [CACACA_site5578] | 9.855 ± 0.064 |
| TTTTTTTCTCTCTCTACACACAAGGTTTAATTTAAA [CACACA_site1690] | 10.2 ± 0.26 |
| AACTCACGAGGACACACACACATATATATATATATA [CACACA_site4711] | 11.4 ± 0.98 |
| ACATACATACATACATACATACATACATACATACAT [XGTACX_negctrl_site315] | 10.6 ± 0.57 |
| AGTCATAAATTTATTTGTACATATAATATATATATA [XGTACX_site8489] | 11 ± 0.68 |

| Sequence | gcPBM binding intensity (ln) |
| --- | --- |
| ATAAACAAAAAAAAAAAATATATCAATATATATATA [CACACA_negctrl_site299] | 9.51 ± 0.38 |
| AAAATATATAATTTTTAACACACAAAAAAAAAAAAA [CACACA_site9192] | 9.54 ± 0.18 |
| TGCCATATATATATTAAATACATAATAATGAGCCTA [GTGCAC_negctrl_site10] | 9.59 |
| TTCATTGTGTTAACGGTGCATATATTTTTTCACCGT [GTGCAC_site9464] | 9.93 ± 0.057 |
| ATGTTATATTTTTTTATACACACTGGGATATATAAA [CACACA_site6244] | 10.1 ± 0.14 |
| AATCAAATTTTCAAGTCGCACCAAACAAAAAAATGA [CACACA_negctrl_site1397] | 10.2 ± 0.25 |
| TATTTAATTAATATAATATTAAACGGAAAAGATAAA [TGCATGCA_negctrl_site148] | 10.1 ± 0.18 |
| TTTTTCTTTTTTTTTTTAATAATATATAACAAATTT [CACACA_negctrl_site1724] | 9.68 ± 0.13 |
| TAAAAATATAAAAAGTGTACAATATATAAATTAATA [XGTACX_site1606] | 11.3 ± 0.67 |
| ATATTAAAAAAATATGCATGCAAATATTATTTTGTA [TGCATGCA_site191] | 9.56 ± 0.16 |
| ACATCATTTTTATGTACACACACATATACGTTGAAT [CACACA_site5095] | 11.6 ± 0.98 |
| GAAGTATTATTAAAGCTGCACTTTTCTAAAATAAAC [GTGCAC_site9429] | 10.2 ± 0.28 |
| AAATGCGTATATAACGCATGTATAAGAACATTTTTT [TGCATGCA_site225] | 9.88 ± 0.2 |
| TTATAATCTATACATATATATGTATGTATGTCTCAA [CACACA_negctrl_site1702] | 9.84 |
| GCAGTATGCGATCAGTGTACGAGTTATTTTATAAAA [XGTACX_site4764] | 11.3 ± 0.85 |
| CATTAATTTAATAAATGTACATAAAATATATATTAT [XGTACX_site8085] | 11.3 ± 0.75 |
| TAAAATTTACAACACTGTACTTGAATTTATCTTTAA [XGTACX_site241] | 11.2 ± 0.75 |
| GTTATACACATATATACACACATATGTAAATATATA [CACACA_site9080] | 9.92 ± 0.071 |
